# Data: the RNAGym collection of RNA variant scans (doi:10.7554/elife.90254)
# Read counts are not given, so values of variants with three or more changes are uncertain.
# B1: LINE1-mini (parent)
# chain: GGCAGAGCUCAACACAGCGUGGCAAAGUGGCUGUGGCUAGACUGCC
# Variants of: B1
# Assay: self-cleavage, relative activity (ratio to wild type); higher = more cleavage; in vitro, sequencing; the parent is a self-cleaving ribozyme
row,Variant,self-cleavage
1,C10U C13A G22C A41U,0
2,C10G C15U C31U G44U,0.03
3,C10G A39G C45A,0.02
4,C10G G21A C23A A24U,0.03
5,C10G C15G C18U G36U,0.03
6,C10G G29U U34G C46U,0.08
7,C10G C23A G36U,0.02
8,C10G A12G U43C C45U,0.01
9,C10U C15U C31U,0.17
10,C10U A16C A39C U43A,0
11,C10G A14C G33U G36A,0.02
12,C10U A12C C23U,0.01
13,C10G A25U U43C G44U C45A,0.01
14,C10G A24G A26U G33C,0.02
15,C10G G21U A26G G30U,0.12
16,C10G C18U G29C,0.02
17,C10U A14U G33A C37A C45U,0.04
18,C10G G19A U32G U38G G40A,0.01
19,C10G G21C A25G,0.07
20,C10U A14C C46A,0.08
21,C10U A14C C23U A41G,0.01
22,C10G G27U U34A C45U,0.03
23,C10G G27U G36U A41C U43C,0
24,C10G C13G C23G,0.03

row,Variant,self-cleavage
1,C10U A39G C46U,0.1
2,C10U A12C A41C C45U C46U,0.01
3,C10G C15A G30U,0.01
4,C10G G30U G35A U38G G40U U43C,0.01
5,C10G G40U C45A,0
6,C10G C31A U32G G44C,0.01
7,C10U A16G C23G A41U,0.04
8,C10G G27A C37U,0.01
9,C10U A11C U20A U38G,0.01
10,C10G A12C G35C,0.01
11,C10U C15A G29U G35U,0.05
12,C10G C15G G19U U38A,0.01
13,C10G U32C G33C,0.01
14,C10G G19A G40U,0.03
15,C10U C15A G19C G44C,0.03
16,C10G G17A C23U G33U,0.02
17,C10G A41C C45A,0.03
18,C10U A12U G22C A25U,0.05
19,C10G C18G A26U G30U G36A,0
20,C10U A16U G30U A41C,0.02
21,C10U C13A C18U U32A,0
22,C10U A14C G44U,0.04
23,C10G C18A G19A C23U A24G,0.31
24,C10G C37A A39U C45G,0

row,Variant,self-cleavage
1,C10G G29U A41U,0.02
2,C10G G17A G30U U32G,0.02
3,C10G A26U U43A,0.02
4,C10U A12U G19C G36U A41U,0.01
5,C10G C15A G19A G30U C37A C46A,0
6,C10U A11U A25U U34G,0.06
7,C10U A14C A16U G22A U38A G44U,0.01
8,C10U A11C G27C C31U,0.01
9,C10G U34G G36U,0.01
10,C10G A12G G29A,0.02
11,C10G A12U C13U C15G C23U,0
12,C10G G30A U34A,0.01
13,C10G C15A C18G A25C U43A,0.01
14,C10G G27U C46A,0.22
15,C10G A25G G30A A41U,0.02
16,C10U A12U C13U G22A,0.06
17,C10U C13A A25C,0.09
18,C10G C13G G33C U38C A39U,0.02
19,C10U A12U C15U U34C U43G,0.02
20,C10U A12U G30U G40C C42A,0.01
21,C10G G17C U34G G36U U43C,0.04
22,C10U A12C C37G G40C,0
23,C10G G22C A25G U32A,0.01
24,C10U A14C C18U G33U,0.01

row,Variant,self-cleavage
1,C10G C15G A16U,0
2,C10G U20G G36C,0
3,C10G G27U G35A G44A,0.04
4,C10U A25G G29A,0.27
5,C10U C13G U20G G27U G35U G36C,0.03
6,C10U C13A C31U G40C,0.06
7,C10G G27U U28C U32G,0
8,C10G G29A G35A C46A,0.05
9,C10U A26U C31U,0.25
10,C10U C15U U38A G40A,0.01
11,C10G A14U C31A U38G,0.01
12,C10U A11U G19C A25G G35C,0
13,C10U A24U G44C,0.04
14,C10U A12G G22U C37U,0.01
15,C10U A11G C23U C46A,0.01
16,C10G G17C C31A C45U,0.1
17,C10U A41U G44A,0.05
18,C10G G21U G36U,0.01
19,C10U A16U C23A A41C U43A,0.03
20,C10G A14C U28A,0.02
21,C10U C13G G27U G36U C42A,0.03
22,C10U C15A G40U U43G,0.03
23,C10G C31G G36C,0.01
24,C10G C31G G36U,0

row,Variant,self-cleavage
1,C10G A24C C31A A39G,0
2,C10G A26G U28C,0.16
3,C10U A12U C23U,0.04
4,C10U A12C C18A C23U G35C,0
5,C10G G21U G33U A39C A41C,0.01
6,C10G G19A G22U A24G G40U,0
7,C10U A11U G17A U28A G33U C42U,0.01
8,C10G G30U C31A,0.26
9,C10G G17A G29A U32C,0.17
10,C10G G17A U34A,0.02
11,C10G G19U U38A,0
12,C10G C15A A26U,0
13,C10G G27A C46U,0.07
14,C10U A14C C23A G33A C42A,0.02
15,C10U A11U G30C,0.15
16,C10G A39C G44U,0.01
17,C10U C15G A41U,0.04
18,C10G A14U G19A A25U C42U,0.02
19,C10G C31G U38G U43G C45G,0
20,C10G C18G C31A C46A,0.01
21,C10G C42U U43G,0.05
22,C10U A14U U34A A39U G40U C42A,0
23,C10G C31A C42A,0.01
24,C10U A12U G19U G27C U34C,0.01

row,Variant,self-cleavage
1,C10G G22C C42A G44A C45U,0
2,C10U A11U A25C G33U C37U,0.02
3,C10U A11G C15U A25U U28G U43A,0.01
4,C10G G21C G30C,0.09
5,C10G G22A A24G C37G G44U,0.01
6,C10G G17A A26U,0.04
7,C10U A12G A24U,0.02
8,C10G A14C G19A U28C G30A C45G,0.02
9,C10U A11U C13A U34A U38C G40U,0.01
10,C10G C15A A25G C46U,0.02
11,C10G G40A U43G,0.01
12,C10U A26C G29A A39G G40C,0
13,C10G A24U G30A,0.06
14,C10U C15A A16G G30A C31A,0.03
15,C10G G19A A24U G27C,0.08
16,C10G U28G G44C,0.13
17,C10U C15U G22C C42A U43A,0
18,C10U C13A U38C,0.02
19,C10G A14C G17U G22U C46U,0.02
20,C10G G30C A39U,0.03
21,C10G C13G A16U,0.01
22,C10G G27A U43G,0
23,C10G C23G G27C G35C C37A,0
24,C10U A14U C23A U38A U43A C46U,0.02

row,Variant,self-cleavage
1,C10G A12U G36U,0.01
2,C10G G27C C37A,0.03
3,C10G A16G C37A G40U,0.01
4,C10U C13G G33A,0.04
5,C10G C18A G19A C46A,0.04
6,C10G A25C C31U U34C U38C,0.02
7,C10U A16C A24C C31G,0.02
8,C10G A26G C42U,0.02
9,C10U A25C G35C G36C C46G,0
10,C10G G19A C23A G30C,0.23
11,C10G C13G A25U G29C C31A U34C,0
12,C10G C42A G44C,0
13,C10U A12G A14U C15A G17U,0.06
14,C10U A12U A25G U28A C37G G44U,0.03
15,C10G C31U G44U,0.01
16,C10G G17C C18A G27A U28C G33C,0
17,C10G C18A U38C,0.01
18,C10G C23A G27U G30C C46A,0.04
19,C10U A11G C18U G30C G36U,0.02
20,C10U C18A C31U G40C,0.02
21,C10U A14C G21U G40C,0.02
22,C10G G22U C23A,0.29
23,C10G G27C U38A,0.04
